Data published in PubChem BioAssay AID686971 (National Center for Advancing Translational Sciences (NCATS), 2013).
The campaign covered roughly 360,000 compounds. About 7,500 (2.1%) were called active. Inconclusive means that the source gave no clear call. Such entries were picked first, then a sample of the others. Calls come from the whole dose curve; as a rule, active = well fitted cell-killing curve with a large enough effect; inconclusive = small, poorly fitted or top-dose-only effect, or effect the other way, or another doubt; inactive = no such curve, though single readings can be large or run the other way. No potency is given beside an inconclusive call; the fits are too rough.

Assay: qHTS for induction of synthetic lethality in tumor cells producing 2HG: qHTS for the HT-1080-IDH1KD cell line
Conditions: HT-1080 IDH1 knockdown viability, ATP luminescence, 48 h; series mostly up to 46.1 µM
Outline: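 Knockdown cells (IDH1KD HT-1080) received compounds 2 h after plating at 750 cells/well and were kept 48 h at 37 °C in 5% FBS RPMI. A CellTiter-Glo luminescence read gave % activity for curve fitting.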
Potency is the fitted concentration of half-maximal effect; tags give direction and shape of the fitted curve.

**Q.** Which Potency does the source give for `O=C(/C=C/c1cccc(C(F)(F)F)c1)N1CCN(c2ccccn2)CC1` here?
**A.** Its Potency is inconclusive [cytotoxic, single point].

**Q.** For `COc1cc(/C=C/CNC[C@H]2O[C@@H](n3ccc(=O)[nH]c3=O)[C@H](O)[C@@H]2O)ccc1O`, which Potency is on record?
**A.** The Potency was “inactive”.

**Q.** With `CCN(CC)S(=O)(=O)c1ccc(NC(=O)CC(NC(C)=O)c2ccccc2)cc1` (centres undefined) as the compound, how does the Potency read?
**A.** The Potency was “inactive”.

**Q.** For `COC(=O)C(NC(=O)c1ccc(F)cc1)(Nc1ncc(S(=O)(=O)c2ccc([N+](=O)[O-])cc2)s1)C(F)(F)F` (centres undefined), which Potency is on record?
**A.** The Potency was inconclusive [cytotoxic, single point].

**Q.** With `COc1ccc(C(C[N+](=O)[O-])n2nc(C)cc2C)cc1` (centres undefined) as the compound, how does the Potency read?
**A.** The Potency was active: 14.6 µM.

**Q.** For `CCOc1ccc(NC(=O)Nc2cc(OCC(F)(F)F)cc(OCC(F)(F)F)c2)cc1`, which Potency is on record?
**A.** The Potency was inconclusive [cytotoxic, partial curve].

**Q.** With `COc1cc(C(=O)NC2CC2)cc(OC)c1OC` as the compound, how does the Potency read?
**A.** Its Potency is “inactive”.

**Q.** With `CC(NC(=O)Cc1cccs1)c1ccc2c(c1)OCO2` (centres undefined) as the compound, how does the Potency read?
**A.** Its Potency is “inactive”.

**Q.** With `O=S1(=O)N=C(N/N=C/c2cccs2)c2ccccc21` as the compound, how does the Potency read?
**A.** Its Potency is inconclusive [cytotoxic, single point].

**Q.** With `Cc1n[nH]c(C)c1CCc1nc2c3ccccc3nc(SCC(=O)Nc3ccccc3F)n2n1` as the compound, how does the Potency read?
**A.** Its Potency is inconclusive [cytotoxic, single point].

**Q.** With `COc1ccc(S(=O)(=O)N/N=C\c2ccc3c(c2)OCO3)c(OC)c1` as the compound, how does the Potency read?
**A.** The Potency was inconclusive [cytotoxic, single point].

**Q.** For `CCOc1ccccc1C(=O)NCC(=O)OCC(=O)N1CCCC1`, which Potency is on record?
**A.** Its Potency is “inactive”.

**Q.** With `COCCNC(=O)C1=C(N)C(C(=O)Nc2ccc(C)c(S(=O)(=O)N3CCCCC3)c2)SC1=Nc1ccc(C)cc1C` (centres undefined) as the compound, how does the Potency read?
**A.** The Potency was inconclusive [cytotoxic, single point].

**Q.** Which Potency does the source give for `CC(=O)c1ccc(S(=O)(=O)N2CCN(C(=O)/C=C/c3ccc4ccccc4n3)CC2)cc1` here?
**A.** The Potency was inconclusive [cytotoxic, partial curve].

**Q.** Which Potency does the source give for `CCCCN(CC)CCCNC(=S)Nc1ccc2nc(N3CCN(CC)CC3)cc(C)c2c1` here?
**A.** Its Potency is inconclusive [cytotoxic, single point].

**Q.** With `O=[N+]([O-])c1ccc(NN=Cc2ccc(O)cc2)nc1` as the compound, how does the Potency read?
**A.** The Potency was “inactive”.

**Q.** For `CCCCCc1ccc(OCCC[n+]2ccccc2)c(CCCCC)c1`, which Potency is on record?
**A.** Its Potency is active: 5.17 µM.

**Q.** For `C[n+]1cccc(C2C(C#N)=C(N)Oc3c2ccc2ccccc32)c1` (centres undefined), which Potency is on record?
**A.** Its Potency is active: 14.6 µM.

**Q.** Which Potency does the source give for `Cc1ccc(-n2cccn2)c(CN2CCCC(C(=O)c3sccc3C)C2)c1` (centres undefined) here?
**A.** Its Potency is inconclusive [cytotoxic, partial curve, poor fit].
